Reference: article PMC4336329 (PLoS ONE, 2015)
Out of some 310,000 compounds screened, about 14,000 (4.5%) showed an effect of 50% or more. The effect is printed as a negative number. The list shows a part of the results.

molecular target: human ether-à-go-go-related gene (hERG) potassium channel (human, UniProt Q12809); assay: primary screen, population patch clamp on CHO cells stably expressing hERG
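Further: peak tail current of the secondary pulse compared with the same well before compound.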

human ether-à-go-go-related gene (hERG) potassium channel, sequence (Q12809 whole entry, looked up): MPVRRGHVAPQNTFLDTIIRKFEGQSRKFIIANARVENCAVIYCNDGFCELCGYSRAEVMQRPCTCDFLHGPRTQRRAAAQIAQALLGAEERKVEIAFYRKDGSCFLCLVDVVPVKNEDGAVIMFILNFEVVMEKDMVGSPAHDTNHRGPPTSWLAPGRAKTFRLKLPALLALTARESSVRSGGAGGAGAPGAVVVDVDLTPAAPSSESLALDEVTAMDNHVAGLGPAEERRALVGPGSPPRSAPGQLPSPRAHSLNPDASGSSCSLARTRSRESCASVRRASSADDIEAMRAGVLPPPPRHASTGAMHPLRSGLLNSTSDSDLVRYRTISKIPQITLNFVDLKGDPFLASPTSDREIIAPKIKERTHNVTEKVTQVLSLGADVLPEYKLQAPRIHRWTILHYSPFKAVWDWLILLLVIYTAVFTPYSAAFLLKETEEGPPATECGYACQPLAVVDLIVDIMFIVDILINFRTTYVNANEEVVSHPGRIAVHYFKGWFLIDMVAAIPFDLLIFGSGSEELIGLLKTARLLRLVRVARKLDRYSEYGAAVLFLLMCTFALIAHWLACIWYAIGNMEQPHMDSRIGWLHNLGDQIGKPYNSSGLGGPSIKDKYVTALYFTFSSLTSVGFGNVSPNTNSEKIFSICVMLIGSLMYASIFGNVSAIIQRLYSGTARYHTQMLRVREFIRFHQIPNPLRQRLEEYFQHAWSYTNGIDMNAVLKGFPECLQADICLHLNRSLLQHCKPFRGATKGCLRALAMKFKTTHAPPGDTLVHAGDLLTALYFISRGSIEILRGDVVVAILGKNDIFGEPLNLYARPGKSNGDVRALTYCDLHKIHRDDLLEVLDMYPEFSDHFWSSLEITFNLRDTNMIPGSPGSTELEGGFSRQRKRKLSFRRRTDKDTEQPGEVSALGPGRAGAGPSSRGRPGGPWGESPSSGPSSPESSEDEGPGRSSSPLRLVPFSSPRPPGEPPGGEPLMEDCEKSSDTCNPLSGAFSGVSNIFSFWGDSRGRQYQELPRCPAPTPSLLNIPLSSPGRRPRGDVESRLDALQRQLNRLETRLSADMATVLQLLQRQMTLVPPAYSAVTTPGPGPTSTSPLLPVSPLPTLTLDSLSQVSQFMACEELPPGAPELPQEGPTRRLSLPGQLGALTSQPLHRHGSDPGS

| SMILES | hERG current change (%, negative = inhibition) at 10uM |
| --- | --- |
| COCCSc1nnc(NC(=O)CS(=O)(=O)c2ccc(C)cc2)s1 | 16% |
| Cc1ccc(OCC(=O)N2CCc3ccccc3C2)c(C)c1 | -16.1% |
| O=C(CCN1CCCCC1)Nc1ccc(Br)cc1 | -37.9% |
| O=C(CCN1C(=O)c2ccccc2S1(=O)=O)Nc1ccccc1O | -19.8% |
| C=C(C)C(=O)Oc1ccc(N2C(=O)[C@@H]3C4C=CC(C4)[C@@H]3C2=O)cc1 | 16.5% |
| O=C(CSCc1c(F)cccc1Cl)NCc1cccnc1 | -2.46% |
| O=C(NC1CCN(C(=S)Nc2ccc(Cl)cc2)CC1)c1ccco1 | -72.8% |
| CN1C(=O)C(CC(=O)Nc2ccccc2)S/C1=N/c1nccs1 (centres unmarked) | 5.29% |
| C=C(C)CSc1nc(N)c2c(C)c(C)sc2n1 | 16.6% |
| COc1ccc2cc3cc(C(=O)Nc4ccccc4N4CCN(C)CC4)oc3nc2c1 | -38.6% |
| O=C(O)C(=O)O.O=C(c1cccs1)N1CCN(Cc2ccncc2)CC1 | -5.94% |
| O=C1CNC(=O)/C(=C/c2ccco2)N1 | 23.3% |
| O=C(COC(=O)c1cc(-c2cccs2)nc2ccccc12)NC1CCS(=O)(=O)C1 (centres unmarked) | -41.3% |
| Oc1ccc(/C=N/NC(=S)NCc2ccco2)cc1 | -10.7% |
| CCOC(=O)C1CN(S(=O)(=O)c2cc(OC)ccc2OC)C1 | 13.7% |
| Cn1c(N)c(C(=O)CSc2nc3ccccc3c(=O)n2CCCN2CCOCC2)c(=O)n(C)c1=O | 2.7% |
| CCOC(=O)C1CCN(C(=O)COc2ccc(N(C)S(=O)(=O)c3cccs3)cc2)CC1 | -44.8% |
| O=Cc1c(NCCc2cccc(F)c2)c2ccccc2[nH]c1=O | -5.02% |
| CN(C)C1C(=O)C(C(N)=O)=C(O)C2(O)C(=O)C3=C(O)c4c(O)cccc4C(C)(O)C3C(O)C12 (centres unmarked) | 3.94% |
| Cc1ccc(-n2nc3c(c2NC(=O)c2cc4ccccc4o2)CS(=O)(=O)C3)cc1 | -26.1% |
| Cc1ccc2c(c1)N(C(=O)CCC(=O)N1CCN(c3ccccn3)CC1)CCO2 | -52.2% |
| CCOC(=O)c1ccc(NS(=O)(=O)c2ccc(Cl)nc2)cc1 | 24.5% |

| SMILES | hERG current change (%, negative = inhibition) at 10uM |
| --- | --- |
| COc1cccc(/C(O)=C2/C(=O)C(=O)N(CCCN3CCOCC3)C2c2ccncc2)c1 (centres unmarked) | 13.5% |
| Cc1cc(=O)oc(C)c1C(=O)N1CCCc2ccccc21 | 7.6% |
| Cc1ccc(Cn2c(=O)c3c(ncn3C)n(C)c2=O)cc1 | 8.05% |
| COc1ccc2cc[nH]c2c1 | 7.29% |
| COc1ccccc1CNc1ccc2nnc(CCNC(=O)c3ccccc3)n2n1 | -11.4% |
| O=C1C=C(Nc2ccc(O)cc2)CC(c2ccco2)C1 (centres unmarked) | 0.756% |
| O=C(/C=C/c1ccc(F)cc1)NC(=S)N1C[C@H]2C[C@H](C1)c1cccc(=O)n1C2 | -22.9% |
| Cc1ccccc1NS(=O)(=O)c1ccc(C(=O)NNC(=O)c2ccccc2O)cc1 | 3.76% |
| N#C/C(=C\c1cn[nH]c1-c1ccc(Cl)cc1)C(=O)NC1CC1 | -28.3% |
| Cc1cc(C)cc(N(CC(=O)NC2CCCC2)C(=O)CCC(=O)Nc2nc(C)cs2)c1 | 1.22% |
| CCOc1ccccc1CN1CCNC(=O)C1CC(=O)NCCCn1cccn1 (centres unmarked) | 8.2% |
| CCOc1ccccc1NC(=O)Cn1nnc(C(=O)NCc2ccco2)c1N | 1.52% |
| Cc1ccc(CNC2=NCCS2)cc1 | 1.97% |
| O=C(N/N=C/c1cccnc1)c1ccc(S(=O)(=O)N2CCCCCC2)cc1 | 12.2% |
| O=C(CSc1nnc(Cn2nnc3ccccc32)o1)N(Cc1ccc(F)cc1)c1ccccc1 | -20.6% |
| CCCc1nnc(NC(=O)C(C)N2C(=O)C3C4C=CC(C4)C3C2=O)s1 (centres unmarked) | -9.2% |
| O=C(CCCN1C(=O)C(c2ccccc2)Oc2cccnc21)Nc1cccc(F)c1 (centres unmarked) | -50.2% |
| COc1ccc(F)cc1C(=O)C1CCCN(C(=O)c2ccccc2N(C)C)C1 (centres unmarked) | -19.2% |
| COc1ccc(Nc2oc(COc3ccccc3OC)nc2C#N)cc1 | -0.599% |
| Cc1ccccc1CN(c1ccc(C(=O)Nc2cccnc2)cc1)S(C)(=O)=O | -9.59% |
| CCc1ccc2[nH]c(=O)c(Cc3ccccc3)c(O)c2c1 | -3.05% |
| COC(=O)c1ccc(NC(=O)c2cccc(N3C(=O)C4C5C=CC(C6CC56)C4C3=O)c2)cc1 (centres unmarked) | 6.62% |
